# The whole screen tested about 150,000 compounds, of which about 540 (0.36%) showed an effect of 50% or more. The list shows a part of the results.
# System: Plasmodium falciparum
# Assay: Primary screen in NF54 nanoGlo assay, in single point, at 2uM, 72h; a lower Z score goes with more inhibition
# Type: functional, Erythrocyte
# Details: timepoint 72 hour
SMILES,% Inhibition [%],Z score
Cc1cccc(OCC(=O)N2C3CCC2CC(F)C3)c1 (stereo unspecified),-1,0.14
O=C(CCn1cccn1)N1CCC2(CC1)CN(c1ccncn1)C[C@@H]2CO,-15,2.14
CC(C)c1ccc(NC(=O)C2CCN2C(=O)C(Cc2ccccc2)NC(=O)C(F)(F)F)cc1 (stereo unspecified),12,-1.39
COC(=O)CNC(=O)COc1ccc(Cl)cc1,-11,2.12
CN1CCCN(C(=O)Cc2noc3ccccc23)c2nc3ccccc3nc21,-8,1.05
CC(C)(C)NC(=O)Cc1ccc(O)cc1,1,-0.15
CCCN1C[C@@H](NC(=O)c2nc3ccccc3[nH]c2=O)CC1=O,-2,0.27
COc1ccc(CN2CCN(C(=O)NC[C@H]3COc4ccccc4O3)CC2)c(OC)c1OC,-9,0.98
O=C(Nc1ccc(CN2CCOCC2)cc1)c1[nH]nc2c1CCCC2,-18,1.83
O=C(Cc1cccnc1)N1CC(Nc2cnccn2)C1,-18,2.06
CC[C@@](C)(C#N)NC(=O)Cc1cccc(F)c1,-5,1.1
O=C(NCc1ccc(N2CC=CC2)cc1)Nc1ccncc1,-1,0.09
O=C(Nc1cccc(Oc2c(F)c(F)c(Oc3cccc(NC(=O)c4ccccc4Cl)c3)c(F)c2F)c1)c1ccccc1Cl,0,0.06
COc1ccc(C(=O)Nc2ccc3nc(N4CCC(C)CC4)cc(C)c3c2)cc1OC,7,-1.1
CC(C)c1nsc(NCC2(O)CN(C(=O)OC(C)(C)C)C2)n1,-10,0.95
O=C(NCC1(CO)CCOCC1)N(c1ccccc1)c1ccccc1,-1,0.08
C[C@@H]1CN(C[C@@H]2CN(Cc3cccc(F)c3F)C[C@@H]2CO)C[C@H](C)O1,7,-1.17
CCCC(=O)N(Cc1c(C)nn(-c2cccc(F)c2)c1N1CCN(C(C)C)CC1)C(C)C,2,-0.27
O=C1N[C@H]2C[C@@H](C(=O)NC[C@H]3O[C@H](CCOc4cc(-c5ccncc5)ccc41)CC[C@@H]3O)N(C1CCC1)C2,34,-3.85
C[C@H](NC1CC(=O)NC1=O)c1ccccc1 (stereo partly specified),-14,1.87
Cc1ccc(S(=O)(=O)CCC(=O)NC2CCCC2)c(C)c1,-5,0.92

SMILES,% Inhibition [%],Z score
Cc1ccc(C(=O)N(CC(C)C)CC2CN(Cc3cccc(C)c3)CC2c2ccccc2)cc1 (stereo unspecified),-11,2.18
Cc1ccc(S(=O)(=O)Nc2nc3n(n2)[C@H](c2ccccc2)CC(O)=N3)cc1,-4,0.39
CCc1nc(-c2[nH]nc(CC)c2C)n(-c2ccc(C(=O)O)cc2)n1,4,-0.49
Cc1nn(C(C)C)cc1CN1CCOc2ccccc2[C@@H]1C(=O)O,-2,0.26
CC(C)[C@H](NC(=O)CCc1nnc(O)[nH]c1=O)c1nc2ccccc2n1C(C)C,-3,0.39
CCn1cc(CNc2nc(-c3cccnc3)nc3c2CCNCC3)cn1,-7,1.41
CC(c1c(O)nc2ccccc2c1O)C1(C)CCC(O)C(C)(C)O1 (stereo unspecified),-35,4.06
O=C1c2ccccc2N[C@H](c2cccc(Br)c2O)N1Cc1cccnc1,-8,1.02
COc1cccc(-c2nn(C)c3sc(C(=O)N4CCN(c5ccccc5)CC4)cc23)c1,-2,0.32
Cc1cc(C)c(S(=O)(=O)NCCC(=O)N(C)C)cc1N(C)S(C)(=O)=O,2,-0.3
O=C(CCC1CCCO1)NC1CCCCNC1=O (stereo unspecified),-10,1.58
CNc1nc(CN2CCn3nc(CCC(=O)NC4CC4)cc3C2)cs1,0,-0.08
CC(C)Oc1ccc(C(=O)NC[C@H]2CCS(=O)(=O)C2)cc1,-6,0.89
O=C(O)Cc1cccc(NS(=O)(=O)c2ccc3c(c2)CCCO3)c1,-10,0.88
O=C(CNC(=O)Cc1ccccc1)NCc1ccccn1,-3,0.38
FC(F)(F)c1cccc(-c2cc(-c3csc(-c4ccccc4)n3)on2)c1,1,-0.12
Cc1ccccc1NC(=O)Nc1ccn2nccc2c1,-4,0.64
Cc1nc(-c2ccncc2)nc(N2CCCO[C@@H](C)C2)c1C,9,-1.28
CCN(CC)c1nnc(-n2cccc2CN2CCN(c3ccc(F)cc3)CC2)s1,-14,1.43
c1ccc(-c2nc3nccc(-c4cccc5ccccc45)n3n2)cc1,-19,2.64
CCNC(=O)N1CCc2cc(S(=O)(=O)N3CCN(C(=O)c4ccco4)CC3)ccc21,-18,2.41

SMILES,% Inhibition [%],Z score
CN1CC[C@@H]2CN(C(=O)c3cc(F)c(F)cc3Cl)C[C@]2(C(=O)O)C1,0,0.09
Cc1cc(F)ccc1CC(=O)N1C[C@H]2CC[C@@H](C1)[C@H]2N(C)C,-6,0.96
COc1ncncc1NC(=O)N1CCCc2ccccc2CC1,-4,0.72
CCN1CC[C@@]2(CCC1=O)CN(c1ncnc3c1CCC3)CCN2C,-4,0.74
CC(C)CCC1CCN(C(=O)c2cn3ccncc3n2)CC1,2,-0.3
CCC(C)C(C)N(C(=O)C[C@@H]1NC(=O)NC1=O)C1CC1 (stereo partly specified),3,-0.3
O=C(NC1CCCc2ccccc21)C1CC=CCC1 (stereo unspecified),9,-1.01
COc1cc(C)ccc1Oc1ccc(F)cc1NC(=O)N(C)C[C@H]1C[C@@H](O)C1,-13,1.44
CC(C)(C)OC(=O)NC(c1nc(C(C)(C)C)no1)C1CCCO1 (stereo unspecified),-3,0.67
CCN1CC2(CCN(C(=O)c3cnc(C)s3)CC2)CC1=O,-4,0.53
O=C(NCc1ccccc1)[C@@H]1Cc2[nH]cnc2CN1C(=O)NC1CCCCC1,-9,1.18
CC(C)(C)OC(=O)N1CC[C@H](NC(=O)CCCCN2CCOCC2)C(C)(C)C1,-9,1.38
COC(=O)CN1CCC(NC(=O)c2ccc3c(c2)C[C@H](C)O3)CC1,4,-0.58
Clc1cnn(CCN2CCC(OCc3cccnc3)CC2)c1,-1,0.09
CC[C@@H](C(=O)N1CCN(Cc2ccc(C)c(C)c2)C(=O)C1)n1cccn1,-9,1.49
Cc1[nH]c2c(CNC(=O)Cn3ccnc3)cc(F)cc2c1C,2,-0.17
CC#CC(=O)Nc1ccc(N2CCOCC2=O)c(C)c1,3,-0.35
CS(=O)(=O)N1CCC(C(=O)OCC(=O)NC2(C#N)CCCCC2)CC1,0,-0.06
CN(Cc1ccccc1)Cc1nc(CC(N)=O)nn1CC(C)(C)O,-6,0.89
Cc1nccc(O[C@H]2CCN(C(=O)c3ccsc3)C2)n1,4,-0.61
CC1=NN(c2ccccc2)C(=O)[C@H]1C(=O)c1ccc(C)cc1,29,-3.85

SMILES,% Inhibition [%],Z score
CC(=O)N1CCC(NC(=O)c2cc(C(C)C)[nH]n2)CC1,6,-1.02
Cc1ccc(C(=O)N2CCC(c3nc(C)no3)CC2)c(C)n1,-15,2.01
O=C1C[C@@H](C(=O)Nc2ccc(F)c(F)c2)n2nc(-c3ccc(F)cc3)cc2N1,3,-0.5
COc1ccc(CC[C@H](C)N2CCN(C/C=C/c3ccccc3)CC2)cc1,-2,0.46
CN(Cc1ccccc1F)C1CC[S+]([O-])CC1 (stereo unspecified),-19,3.56
Cc1ccccc1S(=O)(=O)N1C[C@@H]2C[C@H](N(C)C)CN2C(=O)[C@@H]1C,-25,2.17
COc1ccccc1Oc1nc(N2CCN(C)CC2)nc2c1CN(Cc1ccc(C(F)(F)F)cc1)CC2,-15,2.11
CC(C)(C)OC(=O)N1CC[C@@](C(=O)NOCCO)(C(F)(F)F)C1,-7,1.17
COCCN(C)Cc1ccc(CC2CCN(C(=O)c3cc4ccc(OC)cc4[nH]3)CC2)cc1,-10,1.97
CCN(CC)S(=O)(=O)NCCc1cccc(Cl)c1,-1,0.11
CC(C)COC[C@@H](O)CN1CCN(c2ccc(NC(=O)c3ccccc3)cn2)CC1,-16,2.21
Cc1nnc2n1CCN(C(=O)CCc1nc3ccccc3s1)[C@H]2C(=O)N1CCCC1,-8,1.15
O=C(COC(=O)c1ccccc1-c1nc2ccccc2s1)Nc1ccc2c(c1)OCO2,-1,0.2
Nc1nnnn1CC(=O)NCc1noc(C2CCC2)n1,4,-0.78
Cc1noc([C@H](C)Nc2ccc3c(c2)OCCCO3)n1,-8,0.76
CCOC1CCCN(C(=O)NC(C)C2CC2)C1 (stereo unspecified),-4,0.45
COc1ccc(NC(=O)CNC(=O)c2cn(-c3ccccc3OC)c(=O)c3ccccc23)c(OC)c1,7,-0.8
COCC(=O)N1C[C@@H]2CCN(Cc3cccc(F)c3F)C[C@]2(CO)C1,3,-0.5
CN(CC1(CO)CCC1)C(=O)Cn1cccnc1=O,2,-0.31
O=C(NCC1CCCO1)OCC1CCCO1 (stereo unspecified),-2,0.23

# Reference: ChEMBL document CHEMBL4888484, “Replenishing the malaria drug discovery pipeline: Screening and hit evaluation of the MMV Hit Generation Library 1 (HGL1) against asexual blood stage Plasmodium falciparum ,using a nano luciferase reporter read-out” (2022)
